Reference: PubChem BioAssay AID1460 (National Center for Advancing Translational Sciences (NCATS), 2008)
The whole screen tested about 270,000 compounds, of which about 5,800 (2.1%) were called active. This list was built around the results that the source calls inconclusive (neither active nor inactive); the mix of calls is not that of the screen. Calls follow the shape of the dose curve; as a rule, active = well fitted inhibition curve with a large enough effect; inconclusive = small, poorly fitted or top-dose-only effect; inactive = flat fitted curve, though single readings scatter. Where the call is inconclusive, the potency comes from a doubtful curve fit.

Biological target: Microtubule-associated protein tau (Homo sapiens) (UniProt P10636)
UniProt P10636, sequence (P10636 whole entry, looked up): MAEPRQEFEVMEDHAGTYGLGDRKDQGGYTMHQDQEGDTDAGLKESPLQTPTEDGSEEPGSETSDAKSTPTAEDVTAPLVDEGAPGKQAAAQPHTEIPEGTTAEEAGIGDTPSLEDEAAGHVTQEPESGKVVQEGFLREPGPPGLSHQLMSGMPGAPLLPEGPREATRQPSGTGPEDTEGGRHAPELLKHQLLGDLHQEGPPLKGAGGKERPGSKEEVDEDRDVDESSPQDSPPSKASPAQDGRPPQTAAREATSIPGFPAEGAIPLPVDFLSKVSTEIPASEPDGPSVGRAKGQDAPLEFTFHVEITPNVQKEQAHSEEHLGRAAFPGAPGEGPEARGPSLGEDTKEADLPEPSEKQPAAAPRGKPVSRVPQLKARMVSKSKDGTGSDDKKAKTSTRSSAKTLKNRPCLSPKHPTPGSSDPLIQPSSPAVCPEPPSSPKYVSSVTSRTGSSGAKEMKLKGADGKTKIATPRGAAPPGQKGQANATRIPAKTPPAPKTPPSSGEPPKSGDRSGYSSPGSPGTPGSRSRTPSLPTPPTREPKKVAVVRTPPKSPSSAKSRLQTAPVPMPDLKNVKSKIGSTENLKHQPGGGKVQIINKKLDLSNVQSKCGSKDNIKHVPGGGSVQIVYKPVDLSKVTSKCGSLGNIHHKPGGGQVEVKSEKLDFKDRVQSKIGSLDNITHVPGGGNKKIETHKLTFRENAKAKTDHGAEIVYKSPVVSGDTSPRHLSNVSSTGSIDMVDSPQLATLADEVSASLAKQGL
Assay: qHTS for Inhibitors of Tau Fibril Formation, Thioflavin T Binding; also: nearly all actives have a fitted effect of over 55% in size
Conditions: recombinant tau K18 P301L (four-repeat tau fragment), heparin-induced fibrillization, ThT fluorescence; series mostly up to 57.4 µM; activity, negative = inhibition: at the top concentration
Summary of the method: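 Heparin-induced fibrillization of the P301L-mutant K18 repeat-domain fragment of human tau was followed by ThT binding in quantitative high-throughput format.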
% is scaled to controls: 0 for no effect and ±100 for the full control effect; potency is read from the fitted curve at half-maximal effect; tags tell the direction and shape of the fitted curve.

SMILES | Potency | activity, negative = inhibition
O=C(Cn1nc(-c2ccccc2)c2cnc3ccc(F)cc3c21)NC1CCCC1 | inconclusive: 0.0251 µM [activator, full curve, poor fit] | 
COc1ccc(NCc2nnc(SCC(=O)c3ccc(OC)cc3)n2C)cc1 | inconclusive: 12.6 µM [inhibitor, partial curve] | 
CCNC(=O)C1CCCN(c2ncnc3onc(C)c23)C1 (stereo not drawn) | inconclusive: 7.08 µM [inhibitor, single point] | 
COCCNC(=O)c1c(CSc2ccccc2)noc1C(=O)NCc1ccccc1 | inconclusive: 44.7 µM [inhibitor, single point] | 
CC1(C)CC(=O)C2=C(C1)NC1=C(C(=O)c3ccccc31)C2c1cc([N+](=O)[O-])ccc1O (stereo not drawn) | active: 14.1 µM | 
COc1ccc(CNC(=O)CCc2c(C)c3ccc(OC)c(C)c3oc2=O)cc1OC |  | inactive: -9.73%
Cc1ccc(-c2nnc(SCC(=O)N3CC(C)CC(C)C3)o2)cc1C (stereo not drawn) | inconclusive: 4.47 µM [inhibitor, single point] | 
N#CC1CC(c2ccccc2)Nc2cc(Cl)ccc2N1 (stereo not drawn) | inconclusive: 12.6 µM [inhibitor, partial curve] | 
O=C(Nc1ccc(Cl)cc1)N1CCC(CN2CCCCCC2)CC1 | inconclusive: 14.1 µM [inhibitor, partial curve, poor fit] | 
COc1cccc(OCCNC(=O)CSc2ccc(C(F)(F)F)cc2[N+](=O)[O-])c1 | inconclusive: 20 µM [inhibitor, partial curve] | 
N#Cc1c(-c2ccco2)nc(SCc2ccc(F)cc2)[nH]c1=O |  | inactive: 6.27%
CCCCN(C)CCCNC(=O)/C=C1\Sc2ccccc2NC1=O |  | inactive: -10.5%
COc1ccc(C(=O)NCCc2nnc3ccc(SCC(=O)Nc4cc(C)on4)nn23)cc1 |  | inactive: -4.76%
O=C(NCC1CCCO1)c1nc2c(nnn2Cc2ccc(F)cc2)c(=O)[nH]1 (stereo not drawn) |  | inactive: 11.3%
CC1CCN(C(=S)c2ccc(N(C)C)cc2)CC1 | inconclusive: 17.8 µM [inhibitor, partial curve] | 
COc1ccccc1NC(=O)CNC(=O)c1ccccc1 |  | inactive: 11.5%
CN(C)/C=N/C(=S)Nc1cc(Cl)cc(Cl)c1 |  | inactive: 9.41%
Cc1csc(NC(=O)c2cccc(S(=O)(=O)N3CCN(C)CC3)c2)n1 |  | inactive: 5.48%
Nc1nc(COc2ccccc2)cs1 | inconclusive: 1 µM [inhibitor, full curve, poor fit] | 
CCOc1ccccc1Nc1nc(-c2sc(C)nc2C)cs1 | inconclusive: 12.6 µM [inhibitor, partial curve] | 
COc1ccc(N=C2NC(=O)/C(=C\C=C\c3ccccc3)S2)cc1 | inconclusive: 2.82 µM [inhibitor, full curve] | 
O=C(CCC(=O)Nc1ccc(F)cc1)N/N=C/c1c[nH]c2ccccc12 | inconclusive: 20 µM [inhibitor, partial curve] | 
COc1ccc(OCCCn2cc(/C=C3/C(=N)N4C=C(C)SC4=NC3=O)c3ccccc32)cc1 | inconclusive: 3.55 µM [inhibitor, full curve] | 
CCOC(=O)COc1cc(Br)c(/C=N/Nc2ccccc2)cc1OC | inconclusive: 20 µM [inhibitor, partial curve] | 
Cc1ccc(-c2nc(C(=O)N3CCN(c4ccccc4)CC3)c3n2CCCCC3)cc1 | inconclusive: 25.1 µM [activator, single point] | 

SMILES | Potency | activity, negative = inhibition
Cc1nn(C)c(C(=O)Sc2cccc(Cl)c2)c1[N+](=O)[O-] | inconclusive: 14.1 µM [inhibitor, partial curve] | 
Cc1ccc(C)c(S(=O)(=O)NCc2ccc(C(=O)N3CCCCCC3)cc2)c1 |  | inactive: -16.3%
CCOC(=O)c1c(NC(=O)COc2ccc(CC)cc2)sc2c1CCCC2 |  | inactive: -13.6%
Fc1cccc(Cl)c1CNc1ccc(N2CCCC2)cc1 | active: 5.62 µM | 
Oc1ccc(/C=N/Nc2ncnc3c2ncn3Cc2ccccc2)cc1O | inconclusive: 25.1 µM [inhibitor, partial curve] | 
N#CCC(=N)N1CCN(c2ccc(Cl)cc2)CC1 | inconclusive: 17.8 µM [inhibitor, partial curve] | 
COc1ccc(NC2=C3CC(C)CC=C3N(c3ccc(OC)cc3)C2=O)cc1 (stereo not drawn) | inconclusive: 14.1 µM [inhibitor, partial curve] | 
Cc1ccc(OCC(=O)Nc2ccc3c(c2)sc(=O)n3C)cc1 | inconclusive: 3.55 µM [inhibitor, full curve, poor fit] | 
CSc1ccccc1COC(=O)Nc1ccccc1C | inconclusive: 39.8 µM [inhibitor, single point] | 
COc1ccc(NC(=O)Cn2nc(-c3ccccc3)c3cnc4ccc(C)cc4c32)cc1 |  | inactive: -4%
O=C1C(C=Nc2ccccc2O)=C(O)c2ccccc21 | inconclusive: 8.91 µM [inhibitor, partial curve] | 
CCCc1ccc(Oc2cn[nH]c2-c2ccc(O)c(C)c2O)cc1 | active: 25.1 µM | 
COc1cc(OC)cc(C(=O)Nc2ccc(-c3nc4ccccc4s3)c(C)c2)c1 | inconclusive: 0.891 µM [inhibitor, full curve] | 
Cc1ccc(N2C(=O)CS(=O)(=O)C23C(=O)N(Cc2ccccc2C)c2ccccc23)cc1Cl (stereo not drawn) | inconclusive: 39.8 µM [inhibitor, single point] | 
CCCCOCCCNC(=O)c1cccc(OC)c1 |  | inactive: 1.5%
CCn1nnc2cc(C(=O)Nc3ccc(OC)cc3)ccc21 | inconclusive: 14.1 µM [inhibitor, partial curve] | 
Cc1nc(SCC(=O)Nc2nc3ccccc3s2)c(C#N)c(C)c1C |  | inactive: 0.686%
Cc1ccnc(NC(c2ccsc2)c2ccc3ccc(C)nc3c2O)c1 (stereo not drawn) | inconclusive: 25.1 µM [inhibitor, partial curve] | 
O=c1[nH]c(=O)n([C@H]2C[C@H](O)[C@@H](CO)O2)cc1Br | inconclusive: 39.8 µM [inhibitor, single point] | 
CSc1ccc(-c2cc(=O)c3ccccc3o2)cc1 | inconclusive: 2.82 µM [inhibitor, full curve] | 
C=CCN1C(=O)/C(=C/C(=O)OC)S/C1=N\NC(=O)c1ccccc1 | inconclusive: 31.6 µM [inhibitor, partial curve] | 
COc1ccc(CNCc2cccc(Oc3ccccc3)c2)cc1 |  | inactive: -3.85%
COc1ccc(NC(=O)c2c(C)oc3ccc(O)c(CN4CCCCCC4)c23)cc1 | inconclusive: 31.6 µM [inhibitor, partial curve] | 
C(=N\NCc1ccccc1)/c1ccc2ncccc2c1 | inconclusive: 3.55 µM [inhibitor, partial curve] | 
COC1=C(N)C(=O)c2nc(-c3nc(C(=O)O)c(C)c(-c4ccc(OC)c(OC)c4O)c3N)ccc2C1=O | active: 15.8 µM | 

SMILES | Potency | activity, negative = inhibition
COc1cc(OC)c(C2CC(=O)N3CN(C)CSC3=C2C#N)cc1OC (stereo not drawn) | inconclusive: 15.8 µM [inhibitor, partial curve] | 
Cc1ccc(-c2ccc(CCC(=O)O)n2-c2cccc(C)c2C)cc1 | inconclusive: 17.8 µM [inhibitor, partial curve, poor fit] | 
CCc1c(C)sc(NC(=O)OC)c1C(N)=O |  | inactive: -1.17%
O=C(Nc1ccccc1N1CCCCC1)c1cccs1 | inconclusive: 22.4 µM [inhibitor, partial curve] | 
Cc1ccc(C)c(-n2nnc(C(=O)Nc3ccc(Br)cc3)c2C)c1 |  | inactive: 1.42%
COCCn1c(C)cc(O)c(C(c2ccc(OC)cc2)N2CCN(c3ccccc3)CC2)c1=O (stereo not drawn) | inconclusive: 14.1 µM [inhibitor, partial curve] | 
COC(=O)Nc1ccc(Oc2ccccc2)cc1 |  | inactive: -17.1%
O=C1CC(=O)Nc2cc(S(=O)(=O)N3CCN(c4cccc(C(F)(F)F)c4)CC3)ccc2N1 | inconclusive: 14.1 µM [inhibitor, partial curve] | 
COc1ccc(/C=N/NC(=O)c2ccc3nc[nH]c3c2)cc1OC | inconclusive: 12.6 µM [inhibitor, partial curve] | 
CC(=O)N1CCN(C(=O)COc2ccc(Br)cc2)CC1 |  | inactive: -13.7%
CC(C)c1ccc(Cn2ccc3c4c(N)nc(NC5CC5)nc4ccc32)cc1 |  | inactive: -12.9%
COc1cccc(NC(=O)Cc2csc(COc3cccc(C)c3)n2)c1 | inconclusive: 10 µM [inhibitor, single point] | 
O=C1CCCC/C1=C/Nc1ccc2c(c1)OCO2 | inconclusive: 14.1 µM [inhibitor, partial curve] | 
O=C(CC1Sc2ccccc2NC1=O)OCc1cc(=O)oc2cc(O)ccc12 (stereo not drawn) | inconclusive: 10 µM [inhibitor, partial curve] | 
Cc1c(/C=C/C(=O)c2ccc(C(C)C)cc2)cnn1C | inconclusive: 22.4 µM [inhibitor, single point] | 
C=CCN1C(=O)/C(=N/n2cnnc2)c2ccccc21 | inconclusive: 39.8 µM [inhibitor, single point] | 
Cc1ccc(NC(=O)c2ccc(Nc3c([N+](=O)[O-])cc([N+](=O)[O-])cc3[N+](=O)[O-])cc2)cc1 | inconclusive: 3.55 µM [inhibitor, full curve] | 
CCOC(=O)c1csc(N)n1 | inconclusive: 10 µM [inhibitor, partial curve] | 
COc1ccc(OCC2c3cc(OC)c(OC)cc3CCN2C(=O)c2c(F)cccc2F)cc1 (stereo not drawn) |  | inactive: -6.09%
COC(=O)c1ccc(C2Nc3cccc4cccc(c34)N2)cc1 | active: 14.1 µM | 
Cc1ccc(S(=O)(=O)N2CCC(NC(=O)c3cccc(C)c3)CC2)cc1 |  | inactive: -1.18%
COCc1cc(C)nc(Nc2ccc(C)c(C)c2)c1C#N | inconclusive: 39.8 µM [activator, single point] | 
O=C(CCc1nc2ccccc2s1)OCC(=O)c1ccc[nH]1 | inconclusive: 3.55 µM [inhibitor, full curve] | 
